Laboratory results as given in PubChem BioAssay AID624417 (National Center for Advancing Translational Sciences (NCATS), 2012).
The campaign covered roughly 410,000 compounds. About 6,400 (1.6%) were called active. Inconclusive means that the source gave no clear call. Such entries were picked first, then a sample of the others. Calls come from the whole dose curve; as a rule, active = well fitted inhibition curve with a large enough effect; inconclusive = small, poorly fitted or top-dose-only effect; inactive = no such curve, though single readings can be large or run the other way. A potency beside an inconclusive call is a rough fit, not a confirmed value.

Target: Glucagon-like peptide 1 receptor (Homo sapiens) (UniProt P43220)
Assay: qHTS of GLP-1 Receptor Inverse Agonists (Inhibition Mode); note: nearly all actives have a fitted effect of over 55% in size
Conditions: HEK293 GLP-1R CRE-luciferase, luminescence, 24 h, GLP-1R form is constitutively active; series mostly up to 38.3 µM
Procedure, shortened: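 Cells are plated, allowed 12 hours at 37 deg C, then treated with compounds for 24 hr before luciferase detection reagent is added and luminescence is read after 12 min at room temperature. The HEK293 line carries constitutively active GLP-1R with a cAMP-responsive reporter.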
Potency is the fitted concentration of half-maximal effect; tags give direction and shape of the fitted curve.

Chain of UniProt P43220 (P43220 whole entry, looked up): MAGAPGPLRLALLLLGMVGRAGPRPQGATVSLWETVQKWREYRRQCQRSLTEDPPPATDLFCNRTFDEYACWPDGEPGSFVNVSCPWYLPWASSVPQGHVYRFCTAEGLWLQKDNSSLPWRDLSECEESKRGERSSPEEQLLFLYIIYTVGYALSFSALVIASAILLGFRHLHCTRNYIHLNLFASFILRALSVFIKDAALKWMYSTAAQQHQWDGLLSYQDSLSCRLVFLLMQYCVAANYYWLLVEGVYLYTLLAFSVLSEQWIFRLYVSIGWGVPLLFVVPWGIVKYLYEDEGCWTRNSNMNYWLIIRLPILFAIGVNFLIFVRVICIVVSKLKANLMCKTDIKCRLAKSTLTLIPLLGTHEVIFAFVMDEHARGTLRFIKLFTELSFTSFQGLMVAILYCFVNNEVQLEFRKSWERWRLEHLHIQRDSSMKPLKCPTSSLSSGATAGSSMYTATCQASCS

Potency, active:
COc1cc(O)c(CC=C(C)C)c(O)c1C(=O)CCc1ccc(O)cc1 2.51 µM

Potency, inconclusive:
COc1ccccc1CCNC(=O)C(=O)NCCC1CCCCN1S(=O)(=O)c1ccccc1 (configuration not stated) 10 µM [inhibitor, partial curve, poor fit]
CC(=O)c1cc(-c2ccccc2)n(CC(=O)N2CCC(C)CC2)c1C 6.31 µM [inhibitor, partial curve]
O=C(NCc1ccc(Cl)c(Cl)c1)c1cc(C2CCCCN2C(=O)c2cccs2)on1 (configuration not stated) 10 µM [inhibitor, partial curve, poor fit]
N#CC1=C2N=C(N)c3ccccc3N2C2=C(C(=O)CCC2)C1c1ccc(Cl)cc1 (configuration not stated) 28.2 µM [inhibitor, single point]
CC(=O)Nc1cccc(-c2ccnc3c2CC(C(=O)Nc2ccc4c(c2)OCO4)O3)c1 (configuration not stated) 1.58 µM [inhibitor, full curve, poor fit]
COC(=O)C1=CN(c2cccc(Cl)c2)C=C(C(=O)OC)C1c1cccc(OC)c1 2.24 µM [inhibitor, full curve, poor fit]
Clc1cccc(CN2CCc3c([nH]c4ccccc34)C2)c1 10 µM [inhibitor, partial curve, poor fit]
Clc1ccc(Nc2nc(NCCN3CCOCC3)nc(N3CCOCC3)n2)cc1 2.24 µM [inhibitor, full curve, poor fit]
Cc1cc(C)cc(NS(=O)(=O)c2ccc(NC(=S)NC(=O)c3ccc(Br)o3)cc2)c1 7.94 µM [inhibitor, partial curve, poor fit]
COc1ccccc1OCC(=O)N(Cc1nc(-c2ccccc2)no1)C1CCCCC1 11.2 µM [inhibitor, partial curve, poor fit]
CSc1nccc(-c2c(-c3ccc(Cl)cc3)noc2C)n1 28.2 µM [inhibitor, single point]
O=[N+]([O-])c1ccccc1C=NN1CCCCCC1 10 µM [inhibitor, partial curve, poor fit]
FC(F)(F)c1cccc(-c2cc3ccccc3nc2N2CCCC2)c1 11.2 µM [inhibitor, partial curve, poor fit]
CC1(C(=O)NS(=O)(=O)c2ccc(F)cc2F)CCN1C(=O)C1(c2ccc(Cl)cc2)CC1 (configuration not stated) 7.08 µM [inhibitor, partial curve]
CCc1nc2c(OCC=C(C)C)cccn2c1N(C)C(=O)c1ccccc1F 11.2 µM [inhibitor, partial curve, poor fit]
COc1ccccc1N1CCN(C(=O)C2CCN(C(=O)c3ccc(C(C)(C)C)cc3)CC2)CC1 14.1 µM [inhibitor, partial curve, poor fit]
CCOC(=O)c1c(CC(C)C)csc1/N=C/C1=C(O)CCCC1=O 10 µM [inhibitor, partial curve, poor fit]
CCOc1ccc(-c2cc(C(=O)Nc3cccc(C(F)(F)F)c3)[nH]n2)c(C)c1 4.47 µM [inhibitor, full curve, poor fit]
C#CCN(C[C@@H]1[C@@H](OC(=O)NCc2ccccc2)[C@@H](OC(=O)NCc2ccccc2)CN(C(=O)OC(C)C)N1C(=O)OC(C)C)S(=O)(=O)c1ccc(C)cc1 4.47 µM [inhibitor, full curve, poor fit]
C=C(C)CN(CC)C(=O)CSc1ccc(S(=O)(=O)N2CCN(Cc3ccccc3)CC2)cn1 11.2 µM [inhibitor, partial curve]
COc1ccccc1NS(=O)(=O)c1cccc(C(=O)NCC2(N(C)C)CCCCC2)c1 12.6 µM [inhibitor, partial curve, poor fit]
O=C(Nc1cccc(C(=O)O)c1)Nc1ccc2c(c1)OCO2 0.891 µM [inhibitor, partial curve, poor fit]
O=C1CC(c2ccco2)Cc2nc(N3CCc4ccccc4C3)ncc21 (configuration not stated) 11.2 µM [inhibitor, partial curve]
O=C(Nc1ccc(C(=O)N2CCCCC2)cc1)c1nsc2ccccc12 10 µM [inhibitor, single point]
COCc1c(C(=O)N2CCN(c3ccc(C(F)(F)F)cn3)CC2)oc2ccccc12 14.1 µM [inhibitor, single point]
Cc1ccc2nc(Cl)c3cc(C(=O)NCCCN4CCCC4)sc3c2c1 7.08 µM [inhibitor, partial curve, poor fit]
CCOC(=O)[C@]12CCCC=C1N(Cc1ccco1)C(=O)[C@H](CC(=O)NCCCCc1ccccc1)C2 28.2 µM [inhibitor, single point]
CCn1c(SCc2ccc(Cl)cc2)nnc1-c1ccccc1 10 µM [inhibitor, single point]
Cc1cccc(CN2C(=O)c3ccccc3Sc3ccc(C(=O)NCCN4CCOCC4)cc32)c1 8.91 µM [inhibitor, partial curve, poor fit]
CCc1cccc(C)c1NC(=O)c1ccc(CN2CCc3ccccc3C2)cc1 2.82 µM [inhibitor, partial curve, poor fit]
O=C(c1ccccc1)N1CCc2ccccc21 10 µM [inhibitor, single point]
CC12CCC(C(=O)N(CSC(=S)N/N=C\c3ccccc3)C1=O)C2(C)C (configuration not stated) 6.31 µM [inhibitor, partial curve, poor fit]
O=C(c1cnc2n(c1=O)CCS2)N1CCN(C(c2ccccc2)c2ccc(Cl)cc2)CC1 (configuration not stated) 12.6 µM [inhibitor, partial curve, poor fit]
CCOc1ccc(N(CC(=O)NC2CCCC2)C(=O)CCC(=O)Nc2nc(C)cs2)cc1 11.2 µM [inhibitor, single point]
Cc1ccc(NC(=S)NCCc2c[nH]c3ccccc23)c(C)c1 12.6 µM [inhibitor, single point]
CC1(C)Cc2c(sc3nc(-c4ccccc4)n(N)c(=O)c23)CO1 0.501 µM [inhibitor, full curve, poor fit]
O=C(/C=C/c1cccs1)N1CCc2ccccc21 11.2 µM [inhibitor, single point]
CCCc1cc(C(=O)Nc2sc3c(c2C#N)CCC3)no1 8.91 µM [inhibitor, partial curve, poor fit]
CCC(CC)C(=O)N1CCN(c2cccc(C)c2C)CC1 12.6 µM [inhibitor, partial curve, poor fit]
CCOC(=O)C1=CCC(c2ccccc2C(F)(F)F)N(S(=O)(=O)c2ccc(C)cc2)C1 (configuration not stated) 28.2 µM [inhibitor, single point]
CCOCCCNC(=O)/C(C#N)=C/c1cc(Br)c(O)c(Br)c1 0.794 µM [inhibitor, full curve, poor fit]
O=[N+]([O-])c1cccc(-c2csc(Nc3ccccc3)n2)c1 28.2 µM [inhibitor, partial curve, poor fit]
CN1CCN(c2ncnc3c2ncn3[C@H]2CN(Cc3ccc(-c4ccccc4)cc3)C[C@@H](CO)O2)CC1 7.94 µM [inhibitor, partial curve]
COc1ccc(CC(=O)N/N=C/c2ccc(Cl)s2)cc1OC 7.08 µM [inhibitor, partial curve, poor fit]
O=C(Nc1ccc(OC(F)(F)F)cc1)C(Cc1ccccc1)NS(=O)(=O)c1cccc2nsnc12 (configuration not stated) 14.1 µM [inhibitor, partial curve, poor fit]
CSc1ccc(CNC(=O)C2CCC(=O)N(Cc3cccc(F)c3)C2)cc1 (configuration not stated) 11.2 µM [inhibitor, single point]

Potency, inactive:
C=CCOc1ccccc1CNc1ccc2c(c1)OCCO2
Cc1ccc(CN2CC(C(=O)N3CCN(c4ccccc4O)CC3)CC2=O)cc1 (configuration not stated)
COc1ccc(C)cc1NC(=O)COC(C)=O
COC(=O)c1sccc1NC(=O)c1ccc(C)cc1
CC1CCc2c(sc(NC(=O)Cn3nc(C(=O)O)c4ccccc4c3=O)c2C#N)C1 (configuration not stated)
Cc1cc(C)cc(NC(=O)CSc2nc3c([nH]c4ccccc43)c(=O)n2-c2ccc(F)cc2)c1
Cc1cccc(CNC(=O)c2ccc3nc(Cc4ccccc4F)oc3c2)n1
COc1ccc(CNC(=O)C(CCSC)NS(=O)(=O)c2ccc3c(c2)oc(=O)n3C)cc1 (configuration not stated)
c1ccc(-c2nc(-c3cccs3)[nH]c2-c2ccccc2)cc1
COc1cc(Cl)c(C)cc1NC(=O)CCc1c(C)nc2c3cccnc3nn2c1C
CCOc1ccc(NC(=O)CN2CCN(CC(=O)Nc3ccc(F)cc3)CC2)cc1
COc1cc(C=O)c(Br)cc1OCC(=O)NCc1ccccc1
CCOC(=O)c1c(NC(=O)CSc2ncnc3ccccc23)sc(C)c1C
COc1ccccc1NS(=O)(=O)c1cccc(C(=O)NCC(c2cccs2)N(C)C)c1 (configuration not stated)
COc1ccccc1C(=O)Nc1cccc(C(=O)OCc2cc(=O)n3nc(C4CC4)sc3n2)c1
